Test results reported in US20240358826A1 (ORIONIS BIOSCIENCES, published 2024).

B1: CD8 VHH_5GGS_Fc_hole + Fc-knob_20GGS_IL1α delta 1-6_S31G (Fc fusion)
chain 1: DVQLQESGGGLVQPGGSLRLSCAASGSIFSINVMGWYRQTPGKERELVAKITNFGITSYADSAQGRFTISRGNAKNTVYLQMNSLKPEDTAVYYCNLDTTGWGPPPYQYWGQGTQVTVSSGGSGGSGGSGGSGGSDKTHTCPPCPAPEAAGGPSVFLFPPKPKDTLMISRTPEVTCVVVDVSHEDPEVKFNWYVDGVEVHNAKTKPREEQYNSTYRVVSVLTVLHQDWLNGKEYKCQVSNKALPAPIEKTISKAKGQPREPQVCTLPPSRDELTKNQVSLSCAVKGFYPSDIAVEWESNGQPENNYKTTPPVLDSDGSFFLVSKLTVDKSRWQQGNVFSCSVMHEALHNHYTQKSLSLSPGK
chain 2: [letters of human IgG1 Fc with changes not shown]GGSGGSGGSGGSGGSGGSGGSGGSGGSGGSGGSGGSGGSGGSGGSGGSGGSGGSGGSGGSLSNVKYNFMRIIKYEFILNDALNQGIIRANDQYLTAAALHNLDEAVKFDMGAYKSSKDDAKITVILRISKTQLYVTAQDEDQPVLLKEMPEIPKTITGSETNLLFFWETHGTKNYFTSVAHPNLFIATKQDYWVCLAGGPPSITDFQILENQA
B2: CD8 VHH_5GGS_Fc_hole + Fc-knob_20GGS_IL1α delta 1-6_N29A_C141A (Fc fusion)
chain 1: B1 chain 1
chain 2: [letters of human IgG1 Fc with changes not shown]GGSGGSGGSGGSGGSGGSGGSGGSGGSGGSGGSGGSGGSGGSGGSGGSGGSGGSGGSGGSLSNVKYNFMRIIKYEFILNDALAQSIIRANDQYLTAAALHNLDEAVKFDMGAYKSSKDDAKITVILRISKTQLYVTAQDEDQPVLLKEMPEIPKTITGSETNLLFFWETHGTKNYFTSVAHPNLFIATKQDYWVALAGGPPSITDFQILENQA
B3: CD8 VHH_5GGS_Fc_hole + Fc-knob_20GGS_IL1α delta 1-6_N29G_C141S (Fc fusion)
chain 1: B1 chain 1
chain 2: [letters of human IgG1 Fc with changes not shown]GGSGGSGGSGGSGGSGGSGGSGGSGGSGGSGGSGGSGGSGGSGGSGGSGGSGGSGGSGGSLSNVKYNFMRIIKYEFILNDALGQSIIRANDQYLTAAALHNLDEAVKFDMGAYKSSKDDAKITVILRISKTQLYVTAQDEDQPVLLKEMPEIPKTITGSETNLLFFWETHGTKNYFTSVAHPNLFIATKQDYWVSLAGGPPSITDFQILENQA
B4: CD8 VHH_5GGS_Fc_hole + Fc-knob_20GGS_IL1α delta 1-6_N29G_C141A (Fc fusion)
chain 1: B1 chain 1
chain 2: [letters of human IgG1 Fc with changes not shown]GGSGGSGGSGGSGGSGGSGGSGGSGGSGGSGGSGGSGGSGGSGGSGGSGGSGGSGGSGGSLSNVKYNFMRIIKYEFILNDALGQSIIRANDQYLTAAALHNLDEAVKFDMGAYKSSKDDAKITVILRISKTQLYVTAQDEDQPVLLKEMPEIPKTITGSETNLLFFWETHGTKNYFTSVAHPNLFIATKQDYWVALAGGPPSITDFQILENQA
B5: CD8 VHH_5GGS_Fc_hole + Fc-knob_20GGS_IL1α delta 1-6_N29D_C141S (Fc fusion)
chain 1: B1 chain 1
chain 2: [letters of human IgG1 Fc with changes not shown]GGSGGSGGSGGSGGSGGSGGSGGSGGSGGSGGSGGSGGSGGSGGSGGSGGSGGSGGSGGSLSNVKYNFMRIIKYEFILNDALDQSIIRANDQYLTAAALHNLDEAVKFDMGAYKSSKDDAKITVILRISKTQLYVTAQDEDQPVLLKEMPEIPKTITGSETNLLFFWETHGTKNYFTSVAHPNLFIATKQDYWVSLAGGPPSITDFQILENQA
B6: CD8 VHH_5GGS_Fc_hole + Fc-knob_20GGS_IL1α delta 1-6_N29D_C141A (Fc fusion)
chain 1: B1 chain 1
chain 2: [letters of human IgG1 Fc with changes not shown]GGSGGSGGSGGSGGSGGSGGSGGSGGSGGSGGSGGSGGSGGSGGSGGSGGSGGSGGSGGSLSNVKYNFMRIIKYEFILNDALDQSIIRANDQYLTAAALHNLDEAVKFDMGAYKSSKDDAKITVILRISKTQLYVTAQDEDQPVLLKEMPEIPKTITGSETNLLFFWETHGTKNYFTSVAHPNLFIATKQDYWVALAGGPPSITDFQILENQA
B7: CD8 VHH_5GGS_Fc_hole + Fc-knob_20GGS_IL1α delta 1-6_S31A_C141S (Fc fusion)
chain 1: B1 chain 1
chain 2: [letters of human IgG1 Fc with changes not shown]GGSGGSGGSGGSGGSGGSGGSGGSGGSGGSGGSGGSGGSGGSGGSGGSGGSGGSGGSGGSLSNVKYNFMRIIKYEFILNDALNQAIIRANDQYLTAAALHNLDEAVKFDMGAYKSSKDDAKITVILRISKTQLYVTAQDEDQPVLLKEMPEIPKTITGSETNLLFFWETHGTKNYFTSVAHPNLFIATKQDYWVSLAGGPPSITDFQILENQA
B8: CD8 VHH_5GGS_Fc_hole + Fc-knob_20GGS_IL1α delta 1-6_S31A_C141A (Fc fusion)
chain 1: B1 chain 1
chain 2: [letters of human IgG1 Fc with changes not shown]GGSGGSGGSGGSGGSGGSGGSGGSGGSGGSGGSGGSGGSGGSGGSGGSGGSGGSGGSGGSLSNVKYNFMRIIKYEFILNDALNQAIIRANDQYLTAAALHNLDEAVKFDMGAYKSSKDDAKITVILRISKTQLYVTAQDEDQPVLLKEMPEIPKTITGSETNLLFFWETHGTKNYFTSVAHPNLFIATKQDYWVALAGGPPSITDFQILENQA
B9: CD8 VHH_5GGS_Fc_hole + Fc-knob_20GGS_IL1α delta 1-6_S31G_C141S (Fc fusion)
chain 1: B1 chain 1
chain 2: [letters of human IgG1 Fc with changes not shown]GGSGGSGGSGGSGGSGGSGGSGGSGGSGGSGGSGGSGGSGGSGGSGGSGGSGGSGGSGGSLSNVKYNFMRIIKYEFILNDALNQGIIRANDQYLTAAALHNLDEAVKFDMGAYKSSKDDAKITVILRISKTQLYVTAQDEDQPVLLKEMPEIPKTITGSETNLLFFWETHGTKNYFTSVAHPNLFIATKQDYWVSLAGGPPSITDFQILENQA
B10: CD8 VHH_5GGS_Fc_hole + Fc-knob_20GGS_IL1α delta 1-6_S31G_C141A (Fc fusion)
chain 1: B1 chain 1
chain 2: [letters of human IgG1 Fc with changes not shown]GGSGGSGGSGGSGGSGGSGGSGGSGGSGGSGGSGGSGGSGGSGGSGGSGGSGGSGGSGGSLSNVKYNFMRIIKYEFILNDALNQGIIRANDQYLTAAALHNLDEAVKFDMGAYKSSKDDAKITVILRISKTQLYVTAQDEDQPVLLKEMPEIPKTITGSETNLLFFWETHGTKNYFTSVAHPNLFIATKQDYWVALAGGPPSITDFQILENQA

Each binder was assayed against T1, human CD8 alpha (human, UniProt P01732 22-235) (assay: cell-based or functional assay).

Binder	EC50 CD8 cell line (SEAP, HekBlue-IL-1β) [ng/mL]	Ratio (EC50 parental / CD8 cell line)
B1	0.086	97

Each binder was assayed against T2, IL-1R (IL-1 Receptor) (UniProt P14778 18-569, limits assumed) (assay: cell-based or functional assay).
T2 sequence (looked up): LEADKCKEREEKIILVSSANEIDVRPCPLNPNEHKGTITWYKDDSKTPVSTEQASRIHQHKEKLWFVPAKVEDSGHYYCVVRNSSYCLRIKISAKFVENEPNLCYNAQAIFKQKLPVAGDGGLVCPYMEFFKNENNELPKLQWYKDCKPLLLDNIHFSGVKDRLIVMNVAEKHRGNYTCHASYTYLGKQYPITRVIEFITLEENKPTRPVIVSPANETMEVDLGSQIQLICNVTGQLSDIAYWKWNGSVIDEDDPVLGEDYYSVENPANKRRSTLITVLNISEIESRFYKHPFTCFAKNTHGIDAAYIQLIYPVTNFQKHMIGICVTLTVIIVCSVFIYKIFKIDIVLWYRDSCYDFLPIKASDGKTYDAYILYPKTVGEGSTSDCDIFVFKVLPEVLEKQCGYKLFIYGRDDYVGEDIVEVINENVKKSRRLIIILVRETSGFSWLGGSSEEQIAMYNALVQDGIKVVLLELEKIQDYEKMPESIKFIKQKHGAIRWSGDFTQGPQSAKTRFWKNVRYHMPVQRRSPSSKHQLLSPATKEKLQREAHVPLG

Binder	EC50 parental cell line (SEAP, HekBlue-IL-1β) [ng/mL]
B1	8.3

Molecular target: T1, human CD8 alpha
Assay: cell-based or functional assay
Remark: another data set of the same source

T1 sequence (P01732 22-235): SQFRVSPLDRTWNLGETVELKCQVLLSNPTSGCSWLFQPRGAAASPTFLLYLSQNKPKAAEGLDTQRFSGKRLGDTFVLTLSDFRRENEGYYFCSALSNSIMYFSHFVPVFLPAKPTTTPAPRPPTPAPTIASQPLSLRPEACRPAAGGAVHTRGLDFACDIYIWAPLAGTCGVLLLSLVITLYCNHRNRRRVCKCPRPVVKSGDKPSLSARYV

Binder	EC50 CD8 transfected (NF-KB reporter, HEK293T) [ng/mL]	Ratio (estimated targeting window)	Ratio (EC50 mock / CD8 transfected)
B2	6.64	> 1000	
B3	2.8e-07		9.3e+06
B4	0.097		306
B5	0.027		26500
B6	0.65		4810
B7	1.3e-06		3.8e+07
B8	1.9e-07		1.5e+08
B9	0.0003		68700
B10	8.7e-08		5.1e+08

Molecular target: T2, IL-1R (IL-1 Receptor)
Assay: cell-based or functional assay
Remark: another data set of the same source

Binder	EC50 mock transfected (NF-KB reporter, HEK293T) [ng/mL]
B2	> 1000
B3	2.61
B4	29.7
B5	715
B6	3120
B7	50.5
B8	29.5
B9	20.6
B10	44.6
